From patent US20150246136A1 (Bayer, published 2015)

T1: C4.4a (Homo sapiens, UniProt O95274 31-326)
T1 sequence (looked up): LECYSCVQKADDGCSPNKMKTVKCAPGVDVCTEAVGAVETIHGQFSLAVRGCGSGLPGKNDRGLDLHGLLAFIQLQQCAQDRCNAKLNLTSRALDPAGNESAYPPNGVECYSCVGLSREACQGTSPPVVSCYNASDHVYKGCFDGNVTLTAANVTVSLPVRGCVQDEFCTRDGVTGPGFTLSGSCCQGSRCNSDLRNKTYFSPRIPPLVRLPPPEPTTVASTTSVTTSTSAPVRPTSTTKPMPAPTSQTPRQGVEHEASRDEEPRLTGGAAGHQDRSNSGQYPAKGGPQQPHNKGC


Target: T1, C4.4a
Assay: cell-based or functional assay

Row | Binder | IC50 (nM) A549: C4.4a
1 | Example 242 (antibody, human IgG1, lambda, linker-toxophore on cysteine S) heavy: EVQLLESGGGLVQPGGSLRLSCAASGFTFSNAWMSWVRQAPGKGLEWVSYISSSGSTIYYADSVKGRFTISRDNSKNTLYLQMNSLRAEDTAVYYCAREGLWAFDYWGQGTLVTVSS[in this place human IgG1 constant region] light: ESVLTQPPSVSGAPGQRVTISCTGSSSNIGAGYVVHWYQQLPGTAPKLLIYDNNKRPSGVPDRFSGSKSGTSASLAISGLRSEDEADYYCAAWDDRLNGPVFGGGTKLTVLGQPKAAPSVTLFPPSSEELQANKATLVCLISDFYPGAVTVAWKADSSPVKAGVETTTPSKQSNNKYAASSYLSLTPEQWKSHRSYSCQVTHEGSTVEKTVAPTECS | 3 nM
2 | Example 194 (antibody, human IgG1, lambda, linker-toxophore on cysteine S) heavy: QVELLESGGGLVQPGGSLRLSCAASGFTFSNAWMSWVRQAPGKGLEWVSYISSSGSTIYYADSVKGRFTISRDNSKNTLYLQMNSLRAEDTAVYYCAREGLWAFDYWGQGTLVTVSS[in this place human IgG1 constant region] light: DIVLTQPPSASGTPGQRVTISCTGSSSNIGAGYVVHWYQQLPGTAPKLLIYDNNKRPSGVPDRFSGSKSGTSASLAISGLRSEDEADYYCAAWDDRLNGPVFGGGTKLTVLGQPKAAPSVTLFPPSSEELQANKATLVCLISDFYPGAVTVAWKGDSSPVKAGVETTTPSKQSNNKYAASSYLSLTPEQWKSHRSYSCQVTHEGSTVEKTVAPTECS | 0.035 nM
3 | Example 218 (antibody, human IgG1, lambda, linker-toxophore on cysteine S) heavy: EVQLLESGGGLVQPGGSLRLSCAASGFTFSNAWMSWVRQAPGKGLEWVSYISSSGSTIYYADSVKGRFTISRDNSKNTLYLQMNSLRAEDTAVYYCAREGLWAFDYWGQGTLVTVSS[in this place human IgG1 constant region] light: ESVLTQPPSVSGAPGQRVTISCTGSSSNIGAGYVVHWYQQLPGTAPKLLIYDNNKRPSGVPDRFSGSKSGTSASLAISGLRSEDEADYYCAAWDDRLNGPVFGGGTKLTVLGQPKAAPSVTLFPPSSEELQANKATLVCLISDFYPGAVTVAWKADSSPVKAGVETTTPSKQSNNKYAASSYLSLTPEQWKSHRSYSCQVTHEGSTVEKTVAPTECS | 0.037 nM
4 | Example 190 (antibody, human IgG1, lambda, linker-toxophore on cysteine S) heavy: QVELLESGGGLVQPGGSLRLSCAASGFTFSNAWMSWVRQAPGKGLEWVSYISSSGSTIYYADSVKGRFTISRDNSKNTLYLQMNSLRAEDTAVYYCAREGLWAFDYWGQGTLVTVSS[in this place human IgG1 constant region] light: DIVLTQPPSASGTPGQRVTISCTGSSSNIGAGYVVHWYQQLPGTAPKLLIYDNNKRPSGVPDRFSGSKSGTSASLAISGLRSEDEADYYCAAWDDRLNGPVFGGGTKLTVLGQPKAAPSVTLFPPSSEELQANKATLVCLISDFYPGAVTVAWKGDSSPVKAGVETTTPSKQSNNKYAASSYLSLTPEQWKSHRSYSCQVTHEGSTVEKTVAPTECS | 0.062 nM
5 | Example 195 (antibody, human IgG1, lambda, linker-toxophore on cysteine S) heavy: QVELLESGGGLVQPGGSLRLSCAASGFTFSNAWMSWVRQAPGKGLEWVSYISSSGSTIYYADSVKGRFTISRDNSKNTLYLQMNSLRAEDTAVYYCAREGLWAFDYWGQGTLVTVSS[in this place human IgG1 constant region] light: DIVLTQPPSASGTPGQRVTISCTGSSSNIGAGYVVHWYQQLPGTAPKLLIYDNNKRPSGVPDRFSGSKSGTSASLAISGLRSEDEADYYCAAWDDRLNGPVFGGGTKLTVLGQPKAAPSVTLFPPSSEELQANKATLVCLISDFYPGAVTVAWKGDSSPVKAGVETTTPSKQSNNKYAASSYLSLTPEQWKSHRSYSCQVTHEGSTVEKTVAPTECS | 0.037 nM
6 | Example 243 (antibody, human IgG1, lambda, linker-toxophore on lysine NH) heavy: EVQLLESGGGLVQPGGSLRLSCAASGFTFSNAWMSWVRQAPGKGLEWVSYISSSGSTIYYADSVKGRFTISRDNSKNTLYLQMNSLRAEDTAVYYCAREGLWAFDYWGQGTLVTVSS[in this place human IgG1 constant region] light: ESVLTQPPSVSGAPGQRVTISCTGSSSNIGAGYVVHWYQQLPGTAPKLLIYDNNKRPSGVPDRFSGSKSGTSASLAISGLRSEDEADYYCAAWDDRLNGPVFGGGTKLTVLGQPKAAPSVTLFPPSSEELQANKATLVCLISDFYPGAVTVAWKADSSPVKAGVETTTPSKQSNNKYAASSYLSLTPEQWKSHRSYSCQVTHEGSTVEKTVAPTECS | 0.045 nM
7 | Example 244 (antibody, human IgG1, lambda, linker-toxophore on cysteine S) heavy: EVQLLESGGGLVQPGGSLRLSCAASGFTFSNAWMSWVRQAPGKGLEWVSYISSSGSTIYYADSVKGRFTISRDNSKNTLYLQMNSLRAEDTAVYYCAREGLWAFDYWGQGTLVTVSS[in this place human IgG1 constant region] light: ESVLTQPPSVSGAPGQRVTISCTGSSSNIGAGYVVHWYQQLPGTAPKLLIYDNNKRPSGVPDRFSGSKSGTSASLAISGLRSEDEADYYCAAWDDRLNGPVFGGGTKLTVLGQPKAAPSVTLFPPSSEELQANKATLVCLISDFYPGAVTVAWKADSSPVKAGVETTTPSKQSNNKYAASSYLSLTPEQWKSHRSYSCQVTHEGSTVEKTVAPTECS | 0.06 nM
8 | Example 245 (antibody, human IgG1, lambda, linker-toxophore on cysteine S) heavy: EVQLLESGGGLVQPGGSLRLSCAASGFTFSNAWMSWVRQAPGKGLEWVSYISSSGSTIYYADSVKGRFTISRDNSKNTLYLQMNSLRAEDTAVYYCAREGLWAFDYWGQGTLVTVSS[in this place human IgG1 constant region] light: ESVLTQPPSVSGAPGQRVTISCTGSSSNIGAGYVVHWYQQLPGTAPKLLIYDNNKRPSGVPDRFSGSKSGTSASLAISGLRSEDEADYYCAAWDDRLNGPVFGGGTKLTVLGQPKAAPSVTLFPPSSEELQANKATLVCLISDFYPGAVTVAWKADSSPVKAGVETTTPSKQSNNKYAASSYLSLTPEQWKSHRSYSCQVTHEGSTVEKTVAPTECS | 0.27 nM

Continued, values first:

Row | IC50 (nM) A549: C4.4a | Binder
9 | 0.081 nM | Example 163 (antibody, human IgG1, lambda, linker-toxophore on cysteine S) heavy: QVELLESGGGLVQPGGSLRLSCAASGFTFSNAWMSWVRQAPGKGLEWVSYISSSGSTIYYADSVKGRFTISRDNSKNTLYLQMNSLRAEDTAVYYCAREGLWAFDYWGQGTLVTVSS[in this place human IgG1 constant region] light: DIVLTQPPSASGTPGQRVTISCTGSSSNIGAGYVVHWYQQLPGTAPKLLIYDNNKRPSGVPDRFSGSKSGTSASLAISGLRSEDEADYYCAAWDDRLNGPVFGGGTKLTVLGQPKAAPSVTLFPPSSEELQANKATLVCLISDFYPGAVTVAWKGDSSPVKAGVETTTPSKQSNNKYAASSYLSLTPEQWKSHRSYSCQVTHEGSTVEKTVAPTECS
10 | 0.044 nM | Example 213 (antibody, human IgG1, lambda, linker-toxophore on cysteine S) heavy: EVQLLESGGGLVQPGGSLRLSCAASGFTFSNAWMSWVRQAPGKGLEWVSYISSSGSTIYYADSVKGRFTISRDNSKNTLYLQMNSLRAEDTAVYYCAREGLWAFDYWGQGTLVTVSS[in this place human IgG1 constant region] light: ESVLTQPPSVSGAPGQRVTISCTGSSSNIGAGYVVHWYQQLPGTAPKLLIYDNNKRPSGVPDRFSGSKSGTSASLAISGLRSEDEADYYCAAWDDRLNGPVFGGGTKLTVLGQPKAAPSVTLFPPSSEELQANKATLVCLISDFYPGAVTVAWKADSSPVKAGVETTTPSKQSNNKYAASSYLSLTPEQWKSHRSYSCQVTHEGSTVEKTVAPTECS
11 | 0.052 nM | Example 188 (antibody, human IgG1, lambda, linker-toxophore on cysteine S) heavy: QVELLESGGGLVQPGGSLRLSCAASGFTFSNAWMSWVRQAPGKGLEWVSYISSSGSTIYYADSVKGRFTISRDNSKNTLYLQMNSLRAEDTAVYYCAREGLWAFDYWGQGTLVTVSS[in this place human IgG1 constant region] light: DIVLTQPPSASGTPGQRVTISCTGSSSNIGAGYVVHWYQQLPGTAPKLLIYDNNKRPSGVPDRFSGSKSGTSASLAISGLRSEDEADYYCAAWDDRLNGPVFGGGTKLTVLGQPKAAPSVTLFPPSSEELQANKATLVCLISDFYPGAVTVAWKGDSSPVKAGVETTTPSKQSNNKYAASSYLSLTPEQWKSHRSYSCQVTHEGSTVEKTVAPTECS
12 | 0.074 nM | Example 216 (antibody, human IgG1, lambda, linker-toxophore on cysteine S) heavy: EVQLLESGGGLVQPGGSLRLSCAASGFTFSNAWMSWVRQAPGKGLEWVSYISSSGSTIYYADSVKGRFTISRDNSKNTLYLQMNSLRAEDTAVYYCAREGLWAFDYWGQGTLVTVSS[in this place human IgG1 constant region] light: ESVLTQPPSVSGAPGQRVTISCTGSSSNIGAGYVVHWYQQLPGTAPKLLIYDNNKRPSGVPDRFSGSKSGTSASLAISGLRSEDEADYYCAAWDDRLNGPVFGGGTKLTVLGQPKAAPSVTLFPPSSEELQANKATLVCLISDFYPGAVTVAWKADSSPVKAGVETTTPSKQSNNKYAASSYLSLTPEQWKSHRSYSCQVTHEGSTVEKTVAPTECS
13 | 0.03 nM | Example 177 (antibody, human IgG1, lambda, linker-toxophore on cysteine S) heavy: QVELLESGGGLVQPGGSLRLSCAASGFTFSNAWMSWVRQAPGKGLEWVSYISSSGSTIYYADSVKGRFTISRDNSKNTLYLQMNSLRAEDTAVYYCAREGLWAFDYWGQGTLVTVSS[in this place human IgG1 constant region] light: DIVLTQPPSASGTPGQRVTISCTGSSSNIGAGYVVHWYQQLPGTAPKLLIYDNNKRPSGVPDRFSGSKSGTSASLAISGLRSEDEADYYCAAWDDRLNGPVFGGGTKLTVLGQPKAAPSVTLFPPSSEELQANKATLVCLISDFYPGAVTVAWKGDSSPVKAGVETTTPSKQSNNKYAASSYLSLTPEQWKSHRSYSCQVTHEGSTVEKTVAPTECS
14 | 0.02 nM | Example 230 (antibody, human IgG1, lambda, linker-toxophore on cysteine S) heavy: EVQLLESGGGLVQPGGSLRLSCAASGFTFSNAWMSWVRQAPGKGLEWVSYISSSGSTIYYADSVKGRFTISRDNSKNTLYLQMNSLRAEDTAVYYCAREGLWAFDYWGQGTLVTVSS[in this place human IgG1 constant region] light: ESVLTQPPSVSGAPGQRVTISCTGSSSNIGAGYVVHWYQQLPGTAPKLLIYDNNKRPSGVPDRFSGSKSGTSASLAISGLRSEDEADYYCAAWDDRLNGPVFGGGTKLTVLGQPKAAPSVTLFPPSSEELQANKATLVCLISDFYPGAVTVAWKADSSPVKAGVETTTPSKQSNNKYAASSYLSLTPEQWKSHRSYSCQVTHEGSTVEKTVAPTECS
